Laboratory results reported in publication PMC4336329 (PLoS ONE, 2015).
Out of some 310,000 compounds screened, about 2,200 (0.71%) showed an effect of 50% or more. The effect is printed as a negative number. Some of the results follow.

Molecular target: human ether-à-go-go-related gene (hERG) potassium channel (human, UniProt Q12809)
Test: primary screen, population patch clamp on CHO cells stably expressing hERG

Sequence of human ether-à-go-go-related gene (hERG) potassium channel (Q12809 whole entry, looked up): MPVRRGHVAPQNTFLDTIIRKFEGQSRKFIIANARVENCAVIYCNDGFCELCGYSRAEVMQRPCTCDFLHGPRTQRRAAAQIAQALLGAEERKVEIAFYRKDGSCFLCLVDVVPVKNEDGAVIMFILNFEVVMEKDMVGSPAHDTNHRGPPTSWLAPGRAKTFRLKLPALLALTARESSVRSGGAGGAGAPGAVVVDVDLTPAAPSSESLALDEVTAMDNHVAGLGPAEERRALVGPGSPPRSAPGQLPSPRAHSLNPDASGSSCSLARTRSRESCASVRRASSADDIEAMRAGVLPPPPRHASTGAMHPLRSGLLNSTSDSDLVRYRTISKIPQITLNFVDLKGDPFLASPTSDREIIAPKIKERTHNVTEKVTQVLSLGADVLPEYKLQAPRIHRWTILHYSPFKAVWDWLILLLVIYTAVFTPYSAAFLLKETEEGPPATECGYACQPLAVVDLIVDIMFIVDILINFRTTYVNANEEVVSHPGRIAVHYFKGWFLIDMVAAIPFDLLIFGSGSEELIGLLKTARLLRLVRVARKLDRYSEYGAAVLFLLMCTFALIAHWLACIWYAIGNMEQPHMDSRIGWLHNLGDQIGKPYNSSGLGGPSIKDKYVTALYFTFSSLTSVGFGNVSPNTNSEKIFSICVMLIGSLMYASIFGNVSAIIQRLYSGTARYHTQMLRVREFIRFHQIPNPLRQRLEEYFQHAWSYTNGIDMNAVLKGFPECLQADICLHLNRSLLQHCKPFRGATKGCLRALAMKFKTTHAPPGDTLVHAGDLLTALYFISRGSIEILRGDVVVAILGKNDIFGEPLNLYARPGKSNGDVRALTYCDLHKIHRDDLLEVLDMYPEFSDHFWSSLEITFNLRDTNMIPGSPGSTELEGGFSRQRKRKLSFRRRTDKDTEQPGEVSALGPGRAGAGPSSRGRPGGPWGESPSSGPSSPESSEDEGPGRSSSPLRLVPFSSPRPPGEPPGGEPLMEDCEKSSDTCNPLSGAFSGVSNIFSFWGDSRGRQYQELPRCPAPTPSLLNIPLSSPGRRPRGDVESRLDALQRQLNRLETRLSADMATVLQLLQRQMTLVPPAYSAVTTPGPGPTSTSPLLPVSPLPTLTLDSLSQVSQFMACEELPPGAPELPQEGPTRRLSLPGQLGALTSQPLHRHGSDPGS

| Structure (SMILES) | hERG current change (%, negative = inhibition) at 1uM [%] |
| --- | --- |
| O=S(=O)(Nc1nc2cc3c(cc2nc1Cl)OCCO3)c1ccccc1 | -5.58 |
| O=C(NCC(=O)N1CCN(C(=O)c2ccccc2)CC1)c1ccc(Cl)cc1Cl | 5.5 |
| CCOC(=O)C1CCN(C(=O)C2CCN(C(=O)c3ccc([N+](=O)[O-])cc3)CC2)CC1 | -28.2 |
| O=C(Nc1ccc2c(c1)OCCO2)C1CCCC1 | 9.82 |
| CC1=C(C(=O)Nc2cc(C(=O)N(C)Cc3ccccc3)ccc2C)SCCO1 | 15.9 |
| CCC1Sc2ccccc2N(CC(=O)NCCC(C)C)C1=O (stereo not drawn) | 10.8 |
| CC1(C)CC(=O)C(N=Nc2cccc(S(=O)(=O)N3CCOCC3)c2)=C(O)C1 | 4.97 |
| Cc1cc(NC(=O)c2cccs2)ncc1NC(=O)c1cccc(F)c1 | 3.6 |
| O=C(NC1CCN(Cc2ccccc2)CC1)c1c(F)cccc1F | -7.73 |
| N#CCCN/N=C(/Cc1nc2ccccc2[nH]1)c1cccc(Cl)c1 | 14.7 |
| CSc1ccccc1NC(=O)c1cc(C2CC2)on1 | -0.193 |
| CCOc1cc(C=C2C(=O)c3ccccc3C2=O)ccc1OCC(=O)Nc1ccc(C)cc1 | 28.2 |
| COc1ccc(S(=O)(=O)N(C)C)cc1NC(=O)CN1C(=O)NC2(CCCC2)C1=O | 16.4 |
| O=C1CC(N2CCC(C(=O)N3CCCCC3)CC2)C(=O)N1 (stereo not drawn) | 1.93 |
| CC(=O)c1ccc(S(=O)(=O)N2CCCC(N(C)CCc3ccccc3)C2)cc1 (stereo not drawn) | -78.7 |
| COc1cc(CN2CCN(Cc3ccc(C)cc3)CC2)c([N+](=O)[O-])cc1OC.O=C(O)C(=O)O | -73.4 |
| O=[N+]([O-])c1ccc(N2CCCCCC2)c2ncccc12 | 6.66 |
| O=C(NC1CCN(Cc2ccccc2)CC1)c1ccc2c(c1)[nH]c(=O)n2Cc1ccc(F)cc1 | 6.14 |
| O=C(COC(=O)c1cc(S(=O)(=O)N2CCOCC2)ccc1F)NC1CCCCC1 | 5.92 |
| O=C(CNC(=O)c1ccco1)NCC(=O)OCc1c(F)cccc1Cl | 1.85 |
| CCS(=O)(=O)N1CCC(C(=O)Oc2ccccc2)CC1 | 13.5 |
| CCC(O)(c1ccc(OC)cc1)C(CN1CCOCC1)c1ccccc1.Cl (stereo not drawn) | 10.1 |

| Structure (SMILES) | hERG current change (%, negative = inhibition) at 1uM [%] |
| --- | --- |
| CCNC(=S)N(Cc1ccc(OC)cc1)C1CC(=O)N(c2ccc(OCC)cc2)C1=O (stereo not drawn) | 11.3 |
| CC1S/C(=C(\C#N)C(=O)NCc2ccco2)N(Cc2ccco2)C1=O (stereo not drawn) | 8.15 |
| COc1cccc(C(=O)N2CCN(Cc3ccc4c(c3)OCO4)CC2)c1OC | 0.476 |
| CN(CC(O)CN1CCOCC1)S(=O)(=O)[O-].[Na+] (stereo not drawn) | 20.5 |
| N#CC12CCCCC1CC1CCCCC1(C#N)N2Cc1ccccn1 (stereo not drawn) | 9.12 |
| O=C(NC1CCCC1)C(c1cccnc1)N(C(=O)c1csnn1)C1CCCC1 (stereo not drawn) | 14.1 |
| CC1CN(CC(O)COC(c2ccc(Cl)cc2)c2ccc(Cl)cc2)CC(C)O1.Cl (stereo not drawn) | -2.64 |
| Cl.O=C(CSc1ncn[nH]1)Nc1ccc([N+](=O)[O-])cc1Br | 6.71 |
| COc1ccc(C2=NN(S(C)(=O)=O)C(c3cccs3)C2)cc1OC (stereo not drawn) | 14.6 |
| CCOC(=O)c1cc2c(=O)n3cccc(C)c3nc2n(CCOC)c1=NC(C)=O | 8.92 |
| CC[n+]1c(/C=C(/C)SC)sc2ccccc21.COS(=O)(=O)[O-] | 2.44 |
| O=[N+]([O-])c1cccnc1N1CCOCC1 | 11.7 |
| C=C(C)c1cccc(C(C)(C)NC(=O)NCCCN2CCCC2=O)c1 | 13.8 |
| CCc1ccc(-c2nc(CN3CCCC(C(=O)O)C3)c(C)o2)cc1 (stereo not drawn) | 21.6 |
| Cc1ccc(S(=O)(=O)N[C@H](C(=O)N2CCC(C(=O)N[C@@H](CC(=O)O)C(=O)O)CC2)C(C)C)cc1 | 17.2 |
| Cc1cc(OCC(=O)Nc2ccccc2C(N)=O)c2c(C)cc(=O)oc2c1 | 2.49 |
| CCOCC(=O)Nc1nnc(COC)s1 | 16.4 |
| Cc1onc(C(=O)Nc2ccc3c(c2)OCO3)c1[N+](=O)[O-] | 13.8 |
| O=C(N=c1ccn(-c2nc3ccccc3nc2NS(=O)(=O)c2ccccc2)cc1)c1cccs1 | 11.8 |
| O=C(CSc1nc(O)cc(=O)n1-c1ccccc1)NC1CCCCC1 | 6.52 |
| O=C(c1ccc([N+](=O)[O-])cc1)N1CCSC1c1ccc(Br)cc1 (stereo not drawn) | -3.21 |
| C=CCOc1ccc(CN(C)CC(=O)Nc2ccccc2[N+](=O)[O-])cc1.O=C(O)C(=O)O | 0.586 |

| Structure (SMILES) | hERG current change (%, negative = inhibition) at 1uM [%] |
| --- | --- |
| COc1ccc(/C=C2\SC(=S)N(CCC(=O)Nc3ccc(C(=O)O)cc3)C2=O)cc1 | 13.9 |
| O=C(NCC1CCCO1)c1cc(S(=O)(=O)N2CCCCC2)ccc1Cl (stereo not drawn) | 7.98 |
| CCCn1c2ccccc2c2cnn(CC(=O)NC3CCCCC3C)c(=O)c21 (stereo not drawn) | 16.4 |
| O=C(COC(=O)CCNS(=O)(=O)c1ccccc1)NC(=O)c1ccccc1 | 9.02 |
| Nc1c(C(=O)NCc2ccco2)nnn1CC(=O)Nc1ccccc1 | 18.3 |
| C=CCOn1c(=O)c(=O)n(OCc2ccccc2)c2ccccc21 | 3.35 |
| O=C(CCc1ccc(S(=O)(=O)NCCc2ccccc2)cc1)N1CCN(Cc2ccc3c(c2)OCO3)CC1 | 5.35 |
| O=C(Nc1ncccn1)c1cccc(Cl)c1 | 7.76 |
| Cc1cccc(N2CCN(Cc3cc(=O)n4ccsc4n3)CC2)c1C | -13.4 |
| CC1CCCN(C2(O)C(=O)Nc3ccc(Cl)cc32)C1 (stereo not drawn) | 16.1 |
| CC1CC(=O)N(CC(=O)Nc2cccc(Cl)c2)c2ccccc2S1(=O)=O (stereo not drawn) | -3.47 |
| CC1CCN(C(=O)c2ccc(CS(=O)(=O)Cc3ccccc3)cc2)CC1 | -12.7 |
| CCCCCN(C(=O)CCC(=O)OCC(=O)N1CCCCC1)c1c(N)n(CCCC)c(=O)[nH]c1=O | 1.2 |
| Cc1ccc(S(=O)(=O)N2CCCCC2C(=O)N2CCN(C)CC2)cc1 (stereo not drawn) | 15.2 |
| CCn1cc(C(=O)N2CCN(c3ccc(C(C)=O)cc3)CC2)c2cc(OC)c(OC)cc2c1=O | 4.16 |
| COC(=O)C1=C(C)NC(=S)NC1c1ccc(OC(=O)c2ccco2)cc1 (stereo not drawn) | 11 |
| COc1ccc(NS(=O)(=O)c2coc(C(N)=O)c2)cc1Cl | 6.23 |
| Cc1cc(NC(=O)CN2C(=O)NC3(CCCCC3)C2=O)no1 | 13.8 |
| c1coc(-c2nn3c(-c4ccco4)nnc3s2)c1 | -0.125 |
| CCN1CCN(S(=O)(=O)c2ccc(Cl)c(C(=O)NC(C)(C)C)c2)CC1 | -7.39 |
| COc1ccc(C(c2oc(CO)cc(=O)c2O)c2oc(CO)cc(=O)c2O)cc1 | 12.7 |
| CCN(CC)CCNC(=O)c1ccc(NS(=O)(=O)c2ccc3c(c2)OCCO3)cc1 | 16.1 |

| Structure (SMILES) | hERG current change (%, negative = inhibition) at 1uM [%] |
| --- | --- |
| CCCCOc1ccc(C(=O)Nc2ccc(CN3CCOCC3)cc2)cc1 | 14.3 |
| COC(=O)Cc1c(C)c2c(OCc3nn[nH]n3)cc(C)cc2oc1=O | 10.5 |
| CCCCOC(=O)Nc1ccc(S(=O)(=O)Nc2ncccn2)cc1 | 6.56 |
| Cc1[nH]c(-c2ccc3c(c2)OCO3)nc1C(=O)O | 14.2 |
| Cc1ccc(SCC(=O)NCCCN2CCOCC2)cc1 | 16.4 |
| O=C(COc1ccc2ccccc2c1)NCCn1ccc2ccccc21 | 7.11 |
| O=c1[nH]c(=O)n(-c2cccc(Cl)c2)c(O)c1C=NCCCN1CCOCC1 | 5.7 |
| O=C(NCc1ccccn1)C1CC(c2ccccc2Cl)=NO1 (stereo not drawn) | 13.8 |
| CCn1c(C)c(C)c2cc(C(=O)NCCc3ccco3)ccc21 | 18.4 |
| Cc1ccc(NC(=O)N(C2CCCCC2)C(C)c2cccnc2)cc1C (stereo not drawn) | 9.74 |
| Cn1c(COc2ccc(Cl)cc2)nnc1SCC(=O)NC1CCCC1 | -4.17 |
| Cc1sc2nc(CN(CCc3ccccc3)C(=O)c3ccco3)[nH]c(=O)c2c1C | 11 |
| CCc1cc(CNC(=O)c2ccc(OC)c(OC3CCN(C(C)C)CC3)c2)on1 | 3.29 |
| O=c1cc(Cn2ccnc2)c2cc3c(cc2o1)CCC3 | 6.99 |
| CCOC(=O)c1c(C)c(C(=O)N2CCN(C(=O)c3ccco3)CC2)c(C)n1C | -5.61 |
| CCCCC(=O)Nc1cccc(C(=O)Nc2ccccc2C(=O)O)c1 | 15.1 |
| CCNC(=O)CC1C(=O)N(CC)C(=S)N1NC(=O)c1ccc(Cl)cc1 (stereo not drawn) | -17.5 |
| CCC(=O)N1CCc2cc(Br)cc(S(=O)(=O)N3CCC(C(=O)NC(C)C)CC3)c21 | 8.18 |
| CN(C)S(=O)(=O)c1ccc(C(=O)Nc2ccc(F)cc2F)cc1 | 3.99 |
| O=C(O)C1CC=CCC1C(=O)Nc1ccccc1C(=O)N1CCN(c2ccc(F)cc2)CC1 (stereo not drawn) | 2.36 |
| COc1ccccc1OCCNC(=O)C1CC(=O)N(c2cccc(SC)c2)C1 (stereo not drawn) | -4.5 |
